The text below walks through data of ChEMBL document CHEMBL1201862, “PubChem BioAssay data set” (2004).

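These data come from cells grown in 96-well plates and exposed to compound for 48 hours at five concentrations. At the GI50, growth is halved.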 Calls of active or inactive are those of the source. Rule as the data show it: active = GI50 up to about 1.1 µM and inactive = higher.

For this assay, the system named is NCI-H322M. The assay can be described thus: inhibition of tumour cell growth, NCI panel, 48 h.
`Cc1ccsc1C(=S)Nc1ccc(Cl)c(/C=N/OC(C)C)c1`: the GI50 was inactive: 94 µM.
The same measure for `Cc1cc2c(SCc3ccccc3Cl)nc(N)nc2nc1C`: inactive: > 100 µM; for `Nc1nc(SCCc2ccccc2)c2nc[nH]c2n1`: inactive: 75.5 µM.
The same measure for `CCCCCCCCCCCCC(=O)CCCCC(=O)O`: inactive: 15.9 µM; for `CCCCCCCCCCCCCCCC[N+](C)(C)CCl`: inactive: 13.5 µM; for `O=C(CCCN1CCC(C(O)c2ccc(F)cc2)CC1)c1ccc(F)cc1` (stereo unspecified): inactive: 49.9 µM.
To `O=C(c1ccc(Cl)cc1)N(C(=O)N1CCC(c2ccccc2)CC1)c1ccccc1` belongs inactive: > 100 µM.
As to `O=[N+]([O-])c1cccc2nc3ccccc3c(NCCO)c12`, the GI50 was active: 0.00541 µM.
Take `COC(=O)CC1(CNC(=O)OCc2ccccc2)OCCO1`: the GI50 was inactive: > 100 µM.
Regarding `CCOC(=O)C(O)(NC(=O)c1ccccc1F)C(F)(F)F` (stereo unspecified), the GI50 was inactive: > 100 µM.
With `CCOc1ccccc1NC(=O)CC1Sc2ccccc2NC1=O` (stereo unspecified), the GI50 was inactive: > 100 µM.
The same measure for `CN1C(=O)CC2CCCN2C1=O` (stereo unspecified): inactive: > 100 µM; for `N=C1N(c2ccccc2)C(=S)/C(=N/c2ccccc2)N1c1ccccc1`: inactive: 17.1 µM; for `CCCCSC1=N/C(=C\c2ccco2)C(Cl)=N1`: inactive: > 100 µM.
Turning to `CS(=O)(=O)OC1CN2CCC1CC2` (stereo unspecified), the GI50 is inactive: > 100 µM.
For `N#CC(NC12CC3CC(CC(C3)C1)C2)c1ccccc1C(F)(F)F` (stereo unspecified), the GI50 was inactive: > 100 µM.
To `N#Cc1c(O)cc(=O)n2c1[nH]c1ccccc12` belongs inactive: > 100 µM; to `Cc1cccc(/C=N\NC(=S)N2CCCCC2)n1`, active: 0.047 µM.
In the case of `O=C(O)c1cc2c(cc1CC(Cc1ccc3c(c1)CCCC3)C(=O)O)CCCC2` (stereo unspecified), the GI50 was inactive: 82.6 µM.
For `O=C(NCC#CCO)C(F)(F)F`, the GI50 is inactive: > 100 µM.
To `CCOC1C=CCCO1` (stereo unspecified) belongs inactive: > 100 µM.
To `COc1cc(/C=C2\C(=O)N(Cc3ccccc3)C(c3ccccc3)S2(=O)=O)cc(OC)c1OC` (stereo unspecified) belongs inactive: > 100 µM; to `CC(=O)Nc1ccc2nc(-c3ccccn3)c(-c3ccccn3)nc2c1`, inactive: > 100 µM; to `CS/C(=N\C(=S)N(C)C)N(c1ccccc1)c1nc(N(C)C)s[s+]1`, inactive: 12.5 µM.
Consider `O=C1NCCCNCCCNCCCNC(=O)c2cccc1n2`, for which the GI50 was inactive: > 100 µM.
The same measure for `Cc1nc(-c2nc([N+](=O)[O-])c([N+](=O)[O-])[nH]2)cs1`: inactive: > 100 µM; for `COC1=C(C(c2cc(OC)c(OC)c(OC)c2)c2cc3c(cc2OC)OCO3)C(=O)OC1` (stereo unspecified): inactive: > 55.1 µM; for `CCC(=O)C(c1ccccc1)c1ccccn1` (stereo unspecified): inactive: > 100 µM.
The same measure for `CC(C)[Si](OC1=C(C(=O)N(C)c2ccccc2Cl)CCCCC1)(C(C)C)C(C)C`: inactive: > 100 µM; for `C/C(=N\NC(=S)N1CCCCCC1)c1nccnc1C`: active: 0.0124 µM.
The same measure for `CN/C=C(/c1ccc(OC)cc1)C(O)c1ccc(OC)c(OC)c1` (stereo unspecified): inactive: > 100 µM; for `Nc1nc(-c2ccccc2)nc2oc(-c3cccs3)nc12`: inactive: > 100 µM.
With `C=CCc1cccc(C(=O)/C=C(O)/C=C/c2ccccc2Cl)c1O`, the GI50 is inactive: 10.7 µM.
The same measure for `C=CCC1(O)c2cccc(O)c2C(=O)c2cccc(O)c21` (stereo unspecified): inactive: 26.6 µM; for `O=C1OC(=O)C(=C\c2ccc3c(c2)OCO3)/C1=C/c1ccc2c(c1)OCO2`: inactive: > 100 µM; for `Cc1ccc([S+]([O-])c2cccs2)cc1` (stereo unspecified): inactive: > 100 µM.
The same measure for `CCc1cc(-c2nsc(=O)o2)c(S(=O)(=O)CC)s1`: inactive: > 100 µM; for `COc1cc(OC)c2nc(C)c(CCCl)c(Cl)c2c1`: inactive: > 100 µM; for `CC1(C)CC2C(/C1=N/O)C1(C)CCCC2(C)C1O` (stereo unspecified): inactive: > 100 µM.
To `O=[N+]([O-])/C(C(Cl)=C(Cl)Cl)=C(\Nc1cccc2cccnc12)Sc1ccccc1` belongs inactive: 41 µM; to `CCOC(=O)C[n+]1ccc2c([nH]c3cc(OC)ccc32)c1C`, inactive: > 100 µM; to `C=CCN1CCC(O)(c2cc(C(=O)OCC)[nH]c2-c2cc(C)no2)C1` (stereo unspecified), inactive: > 100 µM.
As for `NC(=O)NNCc1ccccc1`, the GI50 is inactive: > 100 µM.
To `CC(C)C(/C=C/c1ccc(Cl)cc1)=N\NC(=S)NN` belongs inactive: 18.5 µM.
The same measure for `CN(C)CC1CCC/C1=N/OC(=O)c1ccccc1` (stereo unspecified): inactive: > 100 µM.
The same measure for `C=C(c1ccccc1)C1(O)CCCCC1N` (stereo unspecified): inactive: > 100 µM; for `COC(=O)c1s/c(=N\C(=S)N(C)C)n(-c2ccccc2)c1C(=O)OC`: inactive: > 100 µM; for `CC(=O)NC1C(OCc2ccccc2)OC(CO)C(O)C1OCC(=O)N[C@@H](C)C(=O)N[C@H](CCC(=O)NCCNc1ccc([N+](=O)[O-])c2[nH]c3ccccc3c(=O)c12)C(N)=O` (stereo partly specified): inactive: 29.6 µM.
Take `CC(OC1CC(=O)CC2C(=O)C=CC(=O)C12)c1ccccc1` (stereo unspecified): the GI50 was inactive: 25.6 µM.
Consider `O=c1[nH]c2cc(C(F)(F)F)ccc2nc1C(F)(F)F`, for which the GI50 is inactive: 25.9 µM.
In the case of `Cc1cn(C(CO)OC(CO)CN(O)C2C3CC4CC(C3)CC2C4)c(=O)[nH]c1=O` (stereo unspecified), the GI50 is inactive: > 100 µM.
To `CSCCCNC(=O)c1csc(-c2csc(C(CNC(=O)OC(C)(C)C)CNC(=O)OC(C)(C)C)n2)n1` belongs inactive: 62.7 µM; to `N#C/N=N/c1cc(Cl)c(/N=N/C#N)cc1Cl`, inactive: > 100 µM; to `CCCCCOc1ccc(NC2=C(Cl)C(=O)c3c(O)ccc(O)c3C2=O)cc1`, inactive: 3.11 µM.
The same measure for `O=CC1C(Cl)=Nc2nc3ccccc3n2C1c1ccc([N+](=O)[O-])cc1` (stereo unspecified): inactive: 21 µM; for `O=[N+]([O-])c1cccc(/C=N/C23CC4CC(CC(C4)C2)C3)c1`: inactive: > 100 µM.
To `O=C(O)C1CCC(=O)N1S(=O)(=O)c1ccccc1` (stereo unspecified) belongs inactive: > 100 µM; to `COc1ccc(C(=O)Cn2c(C(=O)/C=C/c3ccco3)nc3ccccc32)cc1`, inactive: 44.4 µM; to `CC1=C2NCN(C)N=C2C(C#N)(C#N)C1(C#N)C#N`, inactive: > 100 µM.
Regarding `CCOC(=O)C1c2[nH]c3ccccc3c2CCN1C(=O)c1ccc(OC)o1` (stereo unspecified), the GI50 was inactive: > 10 µM.
The same measure for `S=C(NCCc1ccccn1)N/N=C(\c1ccccc1)c1ccccn1`: active: 0.579 µM.
The same measure for `CCOc1ccccc1NC(=O)CCc1nnc(S)[nH]1`: inactive: > 100 µM; for `COC(=O)CCc1ccc(CCC(=O)OC)cc1`: inactive: > 100 µM; for `N#CC1(c2nc3ccccc3o2)C(=O)C(=O)N(C2C3CC4CC(C3)CC2C4)C(=O)C1=O` (stereo unspecified): inactive: > 100 µM.
To `CCCn1cc2c(O)nc(SC)nc2n1` belongs inactive: 50.5 µM.
As for `CN(C)c1nc(N)nc(CS)n1`, the GI50 was inactive: > 100 µM.
Turning to `COc1ccc(/C=C2\C(=O)N(C(=O)c3ccc(NC(C)=O)cc3)N=C2C)cc1`, the GI50 was inactive: > 100 µM.
To `Cc1nc(O)nc2nc3ccc(Cl)cc3c(NC(C)(CO)CO)c12` belongs inactive: > 65.6 µM; to `COc1ccc(C(OC(C)=O)C2C(=C(C#N)C#N)c3ccccc3C2=C(C#N)C#N)cc1` (stereo unspecified), inactive: 34.7 µM; to `COc1cc([C@@H]2c3cc4c(cc3[C@@H](NC(=O)c3ccc(N)cc3)C3COC(=O)[C@@H]32)OCO4)cc(OC)c1O` (stereo partly specified), inactive: 10.4 µM.
To `COc1ccc(C2=C(Cl)c3cc(OC)c(OC)cc3C2OC)cc1OC` (stereo unspecified) belongs inactive: > 100 µM; to `CCC(C)NC(=S)N/N=C(\C)c1ccccn1` (stereo unspecified), active: < 0.024 µM; to `CC(C)(C)[Si](C)(C)OCC1OC(n2cc(F)c(=O)[nH]c2=O)CC1O[Si](C)(C)C(C)(C)C` (stereo unspecified), inactive: 11.9 µM.
Regarding `COC[C@H](C)/N=C/N1CCc2ccccc2C1(Cc1ccccc1)Cc1ccccc1`, the GI50 was inactive: 22.7 µM.
To `CC(C)c1cccc2sc(NC(=O)C(=O)CC(=O)c3ccc(F)cc3)nc12` belongs inactive: > 100 µM; to `Cc1ccc(S(=O)(=O)OC2CS[S+]([O-])CC2OS(=O)(=O)c2ccc(C)cc2)cc1` (stereo unspecified), inactive: 20.3 µM; to `COC1=CC(=C(C#N)/C(=N\c2ccccc2)SC)C=C(OC)C1=O`, inactive: > 100 µM.
The same measure for `CC(=O)OCC1OC(Nc2nc(O)n(C)c(=O)c2-c2csc(N)n2)C(OC(C)=O)C(OC(C)=O)C1OC(C)=O` (stereo unspecified): inactive: > 100 µM; for `CC(C)CCOC(=O)NC(Nc1ccc(F)cc1)(C(F)(F)F)C(F)(F)F`: inactive: 61.2 µM.
The same measure for `O=C(O)C(O)C(O)C(O)C(O)c1nc2ccccc2s1` (stereo unspecified): inactive: 20.6 µM; for `C[C@@H]1[C@@H](c2ccccc2)O[B-](c2ccccc2)(c2ccccc2)[N+]1(C)C`: inactive: > 100 µM.
As for `CC(=O)OCC1OC(OC2CC3C(C)(C)C(OC(C)=O)CC[C@]3(C)C3CCC45CC4(CCC5[C@@H](C)C[C@H](O)C(O)C(C)(C)O)[C@]23C)C(O)C(O)C1O` (stereo partly specified), the GI50 is inactive: > 10 µM.
To `CC(=O)O[C@H]1C(=O)[C@@]2(C)[C@H]([C@H](OC(=O)c3cccc([N+](=O)[O-])c3)[C@]3(O)C[C@H](OC(=O)[C@H](O)[C@@H](NC(=O)c4ccccc4)c4ccccc4)C(C)=C1C3(C)C)[C@]1(OC(C)=O)CO[C@@H]1C[C@@H]2O` belongs active: 0.125 µM.
Turning to `COC(=O)[C@H](Cc1ccccc1)NC(=O)CCCCCCC(=O)NO`, the GI50 is inactive: 96.4 µM.
The same measure for `CC(C)c1cccc(C(C)C)c1NC(=O)C(=O)CC(=O)CC(c1ccccc1)c1c(O)oc2ccccc2c1=O` (stereo unspecified): inactive: > 100 µM; for `COc1ccc2c(c1)/C(=C\c1c(Cl)n(-c3ccccc3)c3ccccc13)C(=O)N2`: inactive: 13.1 µM.
